Experimental data taken from PubChem BioAssay AID504832 (National Center for Advancing Translational Sciences (NCATS), 2011).
Out of some 310,000 compounds screened, about 18,000 (5.8%) were called active. The inconclusive results got no clear call from the source; some entries with a clear call stand among them for comparison. Calls follow the shape of the dose curve; as a rule, active = well fitted inhibition curve with a large enough effect; inconclusive = small, poorly fitted or top-dose-only effect, or another doubt; inactive = no such curve, though single readings can be large or run the other way. Potencies of inconclusive entries are left out as doubtful fits.
% is scaled to controls: 0 for no effect and ±100 for the full control effect; potency is read from the fitted curve at half-maximal effect; tags tell the direction and shape of the fitted curve.

Assay: Primary qHTS for delayed death inhibitors of the malarial parasite plastid, 48 hour incubation
Conditions: P. falciparum luciferase growth in erythrocytes; series mostly up to 28.7 µM; activity change, negative = inhibition: at the top concentration
In short: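 In quantitative HTS format, infected erythrocytes bearing luciferase-reporter parasites were treated for a single generation at 37 C. Luminescence after adding detection reagent served as the growth measure.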
With `Cc1ccc(C)c(OCc2cc(C(=O)NC(C)c3cnn(C)c3)no2)c1` (stereo unspecified) the Potency was inconclusive [inhibitor, single point]. With `O=C(c1cc(-c2ccc(Cl)cc2)on1)N1CCOCC1` the “activity change, negative = inhibition” value was inactive: 153%. For `COc1ccc(C(=O)N(CC2CCCO2)C(C(=O)NC2CCCC2)c2ccc(C)cc2)cc1OC` (stereo unspecified), the Potency was inconclusive [inhibitor, partial curve]. With `COCCOC(=O)c1c(N)n(Cc2ccc(OC)cc2)c2nc3ccccc3nc12` the Potency was inconclusive [inhibitor, single point]. With `COc1ccc2c(Cl)c(C(=O)NCCCn3ccnc3)sc2c1Cl` the Potency was active: 10.4 µM. With `CCN(CC)S(=O)(=O)c1ccc(C(=O)C(C#N)c2ccccn2)cc1` (stereo unspecified) the Potency was inconclusive [inhibitor, single point]. For `O=C(COC(=O)c1cc([N+](=O)[O-])ccc1N1CCOCC1)c1ccc(OC(F)F)cc1OC(F)F`, the Potency was inconclusive [inhibitor, single point]. In the case of `Cc1cccc(-n2c(/C=C/c3ccc([N+](=O)[O-])o3)nc3ccccc3c2=O)c1`, the Potency is reported as inconclusive [inhibitor, partial curve]. In the case of `COc1ccc(C)cc1Nc1n[n+](-c2ccccc2)c(-c2cc(OC)c(OC)cc2Br)s1`, the Potency is reported as inconclusive [inhibitor, single point]. In the case of `O=S(=O)(NC1c2cccc3cccc(c23)C1N1CCNCC1)c1ccccc1` (stereo unspecified), the Potency is reported as inconclusive [inhibitor, single point]. For `CC(C)N1CCC(N2CCN(Cc3ccc(-c4ccccc4Cl)o3)CC2CCO)CC1` (stereo unspecified), the “activity change, negative = inhibition” value was inactive: -10.5%. In the case of `CCOC(=O)C1=C(COC(=O)c2c(OC)cccc2OC)NC(=O)NC1C` (stereo unspecified), the Potency is reported as inconclusive [inhibitor, single point]. With `COC(=O)c1sccc1NC(=O)c1c(C)c(-c2cccc(Cl)c2)nc2ccccc12` the Potency was inconclusive [inhibitor, partial curve, poor fit]. For `COc1ccc(S(=O)(=O)NN=C2CCCCC2)cc1`, the “activity change, negative = inhibition” value was inactive: 38.9%. With `CCCN1C(=O)c2ccccc2NC1c1ccc(OC)c(CSc2ccccn2)c1` (stereo unspecified) the Potency was inconclusive [inhibitor, partial curve]. With `Cc1cc(C)nc(NS(=O)(=O)c2ccc(NC(=S)NC(=O)c3ccco3)cc2)n1` the “activity change, negative = inhibition” value was inactive: -9.6%. In the case of `O=C(c1ccc(F)cc1)C1CCN(C(=S)NCC2CCCO2)CC1` (stereo unspecified), the “activity change, negative = inhibition” value is reported as inactive: 3.9%. With `CCc1ccccc1NC(=S)N(CCOC)C(C)c1ccco1` (stereo unspecified) the Potency was inconclusive [inhibitor, full curve, poor fit]. With `Cc1ccc(C(NC(=O)NN2CCN(C)CC2)C(Cl)Cl)cc1F` (stereo unspecified) the “activity change, negative = inhibition” value was inactive: 2.45%. For `COCCN(C(=O)CSc1nc2ccccc2c(=O)n1C(C)COC)c1c(N)n(Cc2ccccc2)c(=O)[nH]c1=O` (stereo unspecified), the Potency was inconclusive [inhibitor, partial curve]. With `CCC1=Nc2cc(C(=O)NCCN3CCOCC3)ccc2Sc2ccc(Br)cc21` the Potency was inconclusive [inhibitor, partial curve, poor fit]. For `CC(NC(=O)c1cccc(S(=O)(=O)N(C)C)c1)C1CC2CCC1C2` (stereo unspecified), the Potency was inconclusive [inhibitor, partial curve, poor fit]. In the case of `COC(=O)/C(=N/Nc1ccc(C)cc1)N1CCCc2ccccc21`, the Potency is reported as inconclusive [inhibitor, single point]. For `O=C1CN(C(=O)CSc2nnnn2-c2ccc(Cl)cc2)c2ccccc2N1`, the Potency was active: 4.65 µM. With `O=C(Nc1ccc(F)cc1)c1cccc(N2C(=O)C3C4C=CC(C5CC45)C3C2=O)c1` (stereo unspecified) the Potency was inconclusive [inhibitor, partial curve, poor fit]. For `COc1ccccc1C(=O)NNC(=O)c1nn(Cc2ccccc2)c(=O)c2ccccc12`, the Potency was inconclusive [inhibitor, single point]. With `O=C(COc1cc(F)ccc1[N+](=O)[O-])Nc1ccc(N2CCOCC2)cc1` the Potency was inconclusive [inhibitor, partial curve, poor fit]. In the case of `CCCC(C(=O)Nc1cc(S(=O)(=O)N2CCOCC2)ccc1OC)c1ccccc1` (stereo unspecified), the Potency is reported as inconclusive [inhibitor, partial curve]. For `COc1ccc(NC(=O)CN(C)CC(=O)Nc2sc3c(c2C(N)=O)CCC3)cc1`, the Potency was inconclusive [inhibitor, single point]. In the case of `O=c1ccn(-c2cccc(C(F)(F)F)c2)nc1-c1ccn(-c2cccc(Cl)c2)n1`, the Potency is reported as inconclusive [inhibitor, partial curve, poor fit]. For `NNc1nc(Nc2ccccc2)nc(Nc2ccccc2)n1`, the Potency was active: 8.28 µM. For `O=c1c2ccccc2[nH]c2ccc(F)cc12`, the Potency was inconclusive [inhibitor, full curve]. In the case of `N#C/C(=C\c1ccncc1)c1nc2ccccc2o1`, the “activity change, negative = inhibition” value is reported as inactive: 12.6%. For `O=C(Nc1ccc(Cl)cc1)Nc1nnc(CSCc2ccc(Cl)cc2)s1`, the Potency was active: 4.15 µM. In the case of `COc1cc(NC(=O)C2CC(c3ccc(Cl)cc3)=NO2)cc(OC)c1OC` (stereo unspecified), the Potency is reported as inconclusive [inhibitor, full curve]. In the case of `Cc1nnc(SCC(=O)N/N=C/c2cn(-c3ccccc3)nc2-c2ccc(F)cc2)n1-c1ccccc1`, the “activity change, negative = inhibition” value is reported as inactive: -22%. With `CCS(=O)(=O)Nc1cccc(C2=NN(S(=O)(=O)c3ccccc3)C(c3ccco3)C2)c1` (stereo unspecified) the Potency was inconclusive [inhibitor, single point]. For `Cc1cc(C)c2nc(-c3ccncc3)cc(C(=O)N3CCN(Cc4ccccc4Cl)CC3)c2c1`, the Potency was inconclusive [inhibitor, partial curve, poor fit]. For `CCOC(=O)N1CCC(NCc2c(C(=O)N(C)Cc3ccccc3)nc3ccccn23)CC1`, the Potency was inconclusive [inhibitor, full curve]. With `CCN(CC)c1ccc(NC(=O)c2ccco2)c(C)c1` the Potency was inconclusive [inhibitor, single point]. With `CCN(CC)c1ccc2cc(C(=O)NCc3ccc(F)cc3)c(=N)oc2c1` the Potency was inconclusive [inhibitor, single point].
